# The list shows a part of the results.
# B1: Threefoil (Haloarcula marismortui) (protein)
# chain: GSSHHHHHHHHHHSSGLVPRGSHMGDGYYKLVARHSGKALDVENASTSDGANVIQYSYSGGDNQQWRLVDLGDGYYKLVARHSGKALDVENASTSDGANVIQYSYSGGDNQQWRLVDLGDGYYKLVARHSGKALDVENASTSDGANVIQYSYSGGDNQQWRLVDL
# Assays:
# Test in all cases: glycan array binding signal (z-score within array); higher = stronger binding
# Settings in all cases: glycan notation: IUPAC condensed, linker removed
# [1] = target: Gal(b1-4)GlcNAc(b1-2)Man(a1-6)[GlcNAc(b1-2)Man(a1-3)]Man(b1-4)GlcNAc(b1-4)GlcNAc
# In short: (§1)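 The binding signal is a Z-score computed within each array and averaged over linkers. Arrays of the same protein sequence at different concentrations or buffers were also averaged together. Data originate from 3228 arrays in the Consortium for Functional Glycomics database, kept only where the protein sequence was available.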
# [2] = target: Gal(b1-4)GlcNAc(b1-2)Man(a1-6)[Man(a1-3)]Man(b1-4)GlcNAc(b1-4)GlcNAc
# In short: as §1
# [3] = target: Gal(b1-4)GlcNAc(b1-2)[Gal(b1-4)GlcNAc(b1-4)]Man(a1-3)[Gal(b1-4)GlcNAc(b1-2)Man(a1-6)]Man(b1-4)GlcNAc(b1-4)GlcNAc
# In short: as §1
# [4] = target: Gal(b1-4)GlcNAc(b1-2)[Gal(b1-4)GlcNAc(b1-4)]Man(a1-3)[Gal(b1-4)GlcNAc(b1-2)[Gal(b1-4)GlcNAc(b1-6)]Man(a1-6)]Man(b1-4)GlcNAc(b1-4)GlcNAc
# In short: as §1
# [5] = target: Gal(b1-4)GlcNAc(b1-2)[Gal(b1-4)GlcNAc(b1-4)]Man(a1-3)[GlcNAc(b1-4)][Gal(b1-4)GlcNAc(b1-2)Man(a1-6)]Man(b1-4)GlcNAc(b1-4)GlcNAc
# In short: as §1
# [6] = target: Gal(b1-4)GlcNAc(b1-2)[Gal(b1-4)GlcNAc(b1-4)]Man(a1-3)[GlcNAc(b1-4)][Gal(b1-4)GlcNAc(b1-2)[Gal(b1-4)GlcNAc(b1-6)]Man(a1-6)]Man(b1-4)GlcNAc(b1-4)GlcNAc
# In short: as §1
# [7] = target: Gal(b1-4)GlcNAc(b1-2)[Gal(b1-4)GlcNAc(b1-6)]Man(a1-6)[Gal(b1-4)GlcNAc(b1-2)Man(a1-3)]Man(b1-4)GlcNAc(b1-4)GlcNAc
# In short: as §1
# [8] = target: Gal(b1-4)GlcNAc(b1-2)[Gal(b1-4)GlcNAc(b1-6)]Man(a1-6)[Gal(b1-4)GlcNAc(b1-2)Man(a1-3)]Man(b1-4)GlcNAc(b1-4)[Fuc(a1-6)]GlcNAc
# In short: as §1
# [9] = target: Gal(b1-4)GlcNAc(b1-2)[Gal(b1-4)GlcNAc(b1-6)]Man(a1-6)[GlcNAc(b1-4)][Gal(b1-4)GlcNAc(b1-2)Man(a1-3)]Man(b1-4)GlcNAc(b1-4)GlcNAc
# In short: as §1
# [10] = target: Gal(b1-4)GlcNAc(b1-2)[Gal(b1-4)GlcNAc(b1-6)]Man(a1-6)[GlcNAc(b1-4)][Gal(b1-4)GlcNAc(b1-2)[Gal(b1-4)GlcNAc(b1-4)]Man(a1-3)]Man(b1-4)GlcNAc(b1-4)[Fuc(a1-6)]GlcNAc
# In short: as §1
# [11] = target: Gal(b1-4)GlcNAc(b1-3)Gal(b1-3)GalNAc
# In short: as §1
# [12] = target: Gal(b1-4)GlcNAc(b1-3)Gal(b1-3)GlcNAc
# In short: as §1
# [13] = target: Gal(b1-4)GlcNAc(b1-3)Gal(b1-4)Glc
# In short: as §1
# [14] = target: Gal(b1-4)GlcNAc(b1-3)Gal(b1-4)GlcNAc
# In short: as §1
# [15] = target: Gal(b1-4)GlcNAc(b1-3)Gal(b1-4)GlcNAc(b1-2)Man(a1-3)[Gal(b1-4)GlcNAc(b1-3)Gal(b1-4)GlcNAc(b1-2)Man(a1-6)]Man(b1-4)GlcNAc(b1-4)GlcNAc
# In short: as §1
# [16] = target: Gal(b1-4)GlcNAc(b1-3)Gal(b1-4)GlcNAc(b1-2)Man(a1-3)[Gal(b1-4)GlcNAc(b1-3)Gal(b1-4)GlcNAc(b1-2)Man(a1-6)]Man(b1-4)GlcNAc(b1-4)[Fuc(a1-6)]GlcNAc
# In short: as §1
# [17] = target: Gal(b1-4)GlcNAc(b1-3)Gal(b1-4)GlcNAc(b1-2)[Gal(b1-4)GlcNAc(b1-3)Gal(b1-4)GlcNAc(b1-6)]Man(a1-6)[Gal(b1-4)GlcNAc(b1-3)Gal(b1-4)GlcNAc(b1-2)Man(a1-3)]Man(b1-4)GlcNAc(b1-4)GlcNAc
# In short: as §1
# [18] = target: Gal(b1-4)GlcNAc(b1-3)Gal(b1-4)GlcNAc(b1-2)[Gal(b1-4)GlcNAc(b1-3)Gal(b1-4)GlcNAc(b1-6)]Man(a1-6)[Gal(b1-4)GlcNAc(b1-3)Gal(b1-4)GlcNAc(b1-2)Man(a1-3)]Man(b1-4)GlcNAc(b1-4)[Fuc(a1-6)]GlcNAc
# In short: as §1
# [19] = target: Gal(b1-4)GlcNAc(b1-3)Gal(b1-4)GlcNAc(b1-3)Gal(b1-4)GlcNAc
# In short: as §1
# [20] = target: Gal(b1-4)GlcNAc(b1-3)Gal(b1-4)GlcNAc(b1-3)Gal(b1-4)GlcNAc(b1-2)Man(a1-3)[Gal(b1-4)GlcNAc(b1-3)Gal(b1-4)GlcNAc(b1-3)Gal(b1-4)GlcNAc(b1-2)Man(a1-6)]Man(b1-4)GlcNAc(b1-4)GlcNAc
# In short: as §1
# [21] = target: Gal(b1-4)GlcNAc(b1-3)Gal(b1-4)GlcNAc(b1-3)Gal(b1-4)GlcNAc(b1-2)Man(a1-3)[Gal(b1-4)GlcNAc(b1-3)Gal(b1-4)GlcNAc(b1-3)Gal(b1-4)GlcNAc(b1-2)Man(a1-6)]Man(b1-4)GlcNAc(b1-4)[Fuc(a1-6)]GlcNAc
# In short: as §1
# [22] = target: Gal(b1-4)GlcNAc(b1-3)Gal(b1-4)GlcNAc(b1-3)Gal(b1-4)GlcNAc(b1-2)[Gal(b1-4)GlcNAc(b1-3)Gal(b1-4)GlcNAc(b1-3)Gal(b1-4)GlcNAc(b1-6)]Man(a1-6)[Gal(b1-4)GlcNAc(b1-3)Gal(b1-4)GlcNAc(b1-3)Gal(b1-4)GlcNAc(b1-2)Man(a1-3)]Man(b1-4)GlcNAc(b1-4)[Fuc(a1-6)]GlcNAc
# In short: as §1
binder,measurement,setting,value
B1,glycan array binding signal (z-score),[1],0.062
same,glycan array binding signal (z-score),[2],-0.206
same,glycan array binding signal (z-score),[3],3.48
same,glycan array binding signal (z-score),[4],3.06
same,glycan array binding signal (z-score),[5],1.43
same,glycan array binding signal (z-score),[6],8.13
same,glycan array binding signal (z-score),[7],0.527
same,glycan array binding signal (z-score),[8],3.39
same,glycan array binding signal (z-score),[9],0.546
same,glycan array binding signal (z-score),[10],6.8
same,glycan array binding signal (z-score),[11],-0.036
same,glycan array binding signal (z-score),[12],-0.236
same,glycan array binding signal (z-score),[13],-0.048
same,glycan array binding signal (z-score),[14],-0.16
same,glycan array binding signal (z-score),[15],1.2
same,glycan array binding signal (z-score),[16],2.47
same,glycan array binding signal (z-score),[17],0.631
same,glycan array binding signal (z-score),[18],6.34
same,glycan array binding signal (z-score),[19],-0.003
same,glycan array binding signal (z-score),[20],2.86
same,glycan array binding signal (z-score),[21],6.67
same,glycan array binding signal (z-score),[22],9.87

# — the supplement of paper PMC8728848
